From PMC4336329 (PLoS ONE, 2015)
Out of some 310,000 compounds screened, about 2,200 (0.71%) showed an effect of 50% or more. The effect is printed as a negative number. This is one part of the list.

What follows are compounds tested against human ether-à-go-go-related gene (hERG) potassium channel (human, UniProt Q12809) (assay: primary screen, population patch clamp on CHO cells stably expressing hERG).
Chain of human ether-à-go-go-related gene (hERG) potassium channel (Q12809 whole entry, looked up): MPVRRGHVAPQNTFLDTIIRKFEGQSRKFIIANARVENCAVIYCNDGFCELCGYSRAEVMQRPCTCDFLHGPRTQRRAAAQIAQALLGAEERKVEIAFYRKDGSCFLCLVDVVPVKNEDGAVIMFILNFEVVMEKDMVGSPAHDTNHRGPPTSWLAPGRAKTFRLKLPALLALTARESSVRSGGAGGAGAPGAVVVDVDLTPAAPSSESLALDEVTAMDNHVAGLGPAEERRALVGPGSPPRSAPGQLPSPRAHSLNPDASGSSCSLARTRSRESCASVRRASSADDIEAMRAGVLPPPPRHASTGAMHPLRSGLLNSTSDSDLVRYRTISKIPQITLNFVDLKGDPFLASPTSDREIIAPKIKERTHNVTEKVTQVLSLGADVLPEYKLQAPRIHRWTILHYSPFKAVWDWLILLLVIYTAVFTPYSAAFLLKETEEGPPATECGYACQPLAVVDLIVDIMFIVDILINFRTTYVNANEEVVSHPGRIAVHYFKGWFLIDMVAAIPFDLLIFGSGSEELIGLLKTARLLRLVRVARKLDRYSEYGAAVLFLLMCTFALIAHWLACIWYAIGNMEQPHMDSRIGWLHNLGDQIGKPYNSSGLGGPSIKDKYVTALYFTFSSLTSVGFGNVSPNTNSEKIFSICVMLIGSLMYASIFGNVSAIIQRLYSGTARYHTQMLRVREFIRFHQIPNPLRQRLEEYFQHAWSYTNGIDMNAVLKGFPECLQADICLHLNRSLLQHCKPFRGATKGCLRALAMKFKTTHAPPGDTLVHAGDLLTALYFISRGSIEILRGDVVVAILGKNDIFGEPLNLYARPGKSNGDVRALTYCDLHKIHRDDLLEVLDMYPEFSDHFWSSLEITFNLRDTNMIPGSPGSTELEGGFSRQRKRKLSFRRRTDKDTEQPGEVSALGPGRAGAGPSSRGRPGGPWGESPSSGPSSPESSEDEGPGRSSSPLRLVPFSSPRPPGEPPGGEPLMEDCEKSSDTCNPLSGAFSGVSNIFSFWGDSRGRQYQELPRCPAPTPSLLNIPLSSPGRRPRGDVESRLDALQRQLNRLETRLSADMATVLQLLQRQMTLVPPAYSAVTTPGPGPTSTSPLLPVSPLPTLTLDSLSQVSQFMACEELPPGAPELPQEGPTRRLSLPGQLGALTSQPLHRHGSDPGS

| SMILES | hERG current change (%, negative = inhibition) at 1uM |
| --- | --- |
| c1cc2c3c(cccc3c1)C(N1CCCCCC1)=N2 | -46.6% |
| O=C(Nc1cccc(-n2cnnn2)c1)c1cc2ccccc2o1 | 4.8% |
| COc1ccc(Br)cc1/C=N/N1CCN(Cc2ccccc2)CC1 | 5.92% |
| COc1ccccc1N(CC(N)=O)S(=O)(=O)c1ccc(C)cc1 | 10.9% |
| N#CC1=C(SCC(=O)c2cc3ccccc3oc2=O)NC(=O)C(C#N)C12CCCC2 (stereo not drawn) | 3.55% |
| S=C(N/N=C/c1cccs1)NC1CC2CCC1C2 (stereo not drawn) | 8.68% |
| Cc1cc(Nc2nc3ccccc3nc2Cl)n(-c2ccccc2)n1 | -7.04% |
| O=C1c2ccccc2NC(c2ccccc2)N1Cc1ccccc1 (stereo not drawn) | -0.114% |
| CCN(CC)CCN1C(=O)C(O)=C(C(=O)c2cc3cccc(OC)c3o2)C1c1cccs1 (stereo not drawn) | 11.4% |
| CCC(C)NC(=O)c1ccc2c(Cl)c3c(nc2c1)CCC3 (stereo not drawn) | 10.3% |
| Cc1cc(C)nc(NS(=O)(=O)c2ccc(N3Cc4ccccc4C3=O)cc2)n1 | 10.7% |
| CC1(CCc2ccccc2)NC(=O)N(CC(=O)Nc2ccccc2C#N)C1=O (stereo not drawn) | 10.8% |
| O=C(Nc1ccc(F)cc1)C1CCN(C(=O)c2ccc([N+](=O)[O-])cc2)CC1 | 11.5% |
| Cn1c(CO)cnc1S(=O)(=O)Cc1ccc(Cl)cc1 | 11.7% |
| N#CCC(=O)N1CCn2c1nc1ccccc12 | 12.4% |
| CCC(=O)Nc1ccc(C(=O)OCc2ccccc2)cc1 | 9.09% |
| Cc1cnc(NC(=O)CSc2nnc(Cc3ccccc3)n2C)s1 | 2.26% |
| Cn1c(Sc2ccc(C(F)(F)F)cc2[N+](=O)[O-])nnc1-c1ccccc1 | -17.9% |
| C=CCc1cc(C)cc(C)c1OCCn1cncn1 | -12.5% |
| CC(=O)NC12CC3CC(C1)CC(C(=O)OCC(=O)Nc1ncc(Cl)cc1Cl)(C3)C2 | -3.32% |
| CC(C)N(C(=O)COC(=O)c1cccc(N(C)C)c1)c1ccccc1 | 16.2% |
| Cc1ccc(-c2nnc3n2N=C(c2ccccc2)CS3)cc1 | 10.1% |
| NC(=O)c1ccc(NC(=O)CSc2nncn2-c2ccccc2)cc1 | 16.5% |

| SMILES | hERG current change (%, negative = inhibition) at 1uM |
| --- | --- |
| CCCCOCCCNc1ncnc2c1[nH]c1ccccc12 | -10.2% |
| O=C(COc1ccc(Cl)cc1Br)NC(=O)NCc1ccccc1 | 10.4% |
| CSCCC(NC(=O)C1CC1)c1nc2ccccc2[nH]1 (stereo not drawn) | 14.6% |
| CC1CCN(C(=O)CN(Cc2ccccc2)S(C)(=O)=O)CC1 | 14.6% |
| CCOc1ccc(C(=O)NC(C(=O)NCc2cccnc2)C(C)C)cc1 (stereo not drawn) | 3.29% |
| CCCNC(=O)NC(=O)CSc1nnc(-c2ccncc2)n1CC | 12.5% |
| COc1cc(C2NC(=O)NC(C)=C2C(=O)OC2CCCC(C)C2)ccc1O (stereo not drawn) | -2.72% |
| N#Cc1ccccc1S(=O)(=O)N1CCN(C(=O)C2CCCC2)CC1 | 0.462% |
| O=C(N/N=C\c1ccc(-c2ccc(Cl)c(Cl)c2)o1)C(=O)N1CCCC1 | 0.0982% |
| O=C(Nc1ccc(F)cc1)c1ccc(S(=O)(=O)N2CCOCC2)o1 | -2.97% |
| Cc1ccc(S(=O)(=O)N2CCC(=O)N(C(COCc3ccc(C(F)(F)F)cc3)Cc3ccccc3)CC2)cc1 (stereo not drawn) | 13.2% |
| CC1CN(S(=O)(=O)c2ccc(C(=O)NN3CCN(C)CC3)cc2)CC(C)O1 (stereo not drawn) | 5.94% |
| O=C(CN1CCOCC1)Nc1c2c(nc3ccccc13)N(Cc1ccccc1)CC2.O=C(O)C(=O)O | -47.2% |
| O=C(NC(=S)NC1CCCCC1)c1ccccc1 | 12.2% |
| O=C(OCC(=O)N1CCCC1=O)c1cc2ccccc2o1 | 7.72% |
| COC(=O)/C=C1\NCCSC1=O | 1.03% |
| O=[N+]([O-])c1ccc(OS(=O)(=O)Cc2ccccc2)cc1 | -0.36% |
| Cc1ccc(NC2CCCN(C(=O)c3cc4ncccn4n3)C2)cc1C (stereo not drawn) | 14.2% |
| C/C(=N\N1CCN(c2ccccc2)CC1)c1ccncc1 | 7.82% |
| O=C(O)CC1(CC(=O)Nc2ccccc2Br)CCCC1 | 4.18% |
| Cc1nc(S(=O)(=O)Cc2ccc(Cl)cc2)nc2c1CCC2 | 14% |
| CCn1ncc(C2C(C(=O)Nc3ccc(C)cn3)=C(C)NC3=C2C(=O)CCC3)c1C (stereo not drawn) | 12.7% |
